Data taken from the RNAGym collection of RNA variant scans (doi:10.1073/pnas.2313332121).
This sample is rich in variants without activity.

B1: TPR 5TU (parent)
chain: GGAUCUUCUCGAUCUAACAAAAAAGACAAAUCUGCCACAAAGCUUGAGAGCAUCUUCGGAUGCAGAGGCGGCAGCCUUCGGUGGCGCGAUAGCGCCAACGUUCUCAACUAUGACACGCAAAACGCGUGCUCCGUUGAAUGGAGUUUAUCAUG

Variants of: B1
Assay: polymerase ribozyme fitness, log enrichment relative to wild type (log ratio); higher = more active; in vitro selection for triplet polymerase activity
Summary of the method: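 Mutant libraries of both subunits of a heterodimeric triplet polymerase ribozyme were PCR-built, transcribed, and selected once in triplicate, with frozen incubation at −7 °C and capture of gel-excised extended constructs on streptavidin beads before RT-PCR. Illumina sequencing of input and output libraries was filtered to genotypes with ≥10 input reads and ≥1 read per output. Fitness is the logarithm of genotype enrichment over wild-type enrichment, using inverse-variance-weighted replicate averages. The logarithm is base 2.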
In the case of U7A C93G A113U A138C, the “polymerase ribozyme fitness (log ratio)” value is reported as at most -4.2.
For U6A C43U G50A G88U A107G G126C, the “polymerase ribozyme fitness (log ratio)” value was at most -4.2.
In the case of C5G A37U G141U, the “polymerase ribozyme fitness (log ratio)” value is reported as -1.94.
With C5U U45C A60U G68A C87U C96U the “polymerase ribozyme fitness (log ratio)” value was at most -4.2.
With C5U G65C G68U A97G A98U the “polymerase ribozyme fitness (log ratio)” value was at most -4.2.
In the case of U6C G11C A16C G58C A142C, the “polymerase ribozyme fitness (log ratio)” value is reported as -3.7.
For U6G U55A G65C G70A G86U U104G G124A G141C U144C, the “polymerase ribozyme fitness (log ratio)” value was at most -4.2.
For U6C U31C C57A C96G, the “polymerase ribozyme fitness (log ratio)” value was -1.1.
With U6G U7G A16U U82C G84U A106U A121U the “polymerase ribozyme fitness (log ratio)” value was at most -4.2.
In the case of C5U A21U G84A G112U G117U G124C, the “polymerase ribozyme fitness (log ratio)” value is reported as at most -4.2.
For C5G A52G G71U A73G C76A G88U A106G, the “polymerase ribozyme fitness (log ratio)” value was at most -4.2.
For C5G A16C C32G A47G A73U C75U C132U, the “polymerase ribozyme fitness (log ratio)” value was at most -4.2.
For U6A C54A C95G A98U, the “polymerase ribozyme fitness (log ratio)” value was -2.26.
With C5U A40C C54G G92A A121U C132U U146A the “polymerase ribozyme fitness (log ratio)” value was at most -4.2.
With U6G G92A the “polymerase ribozyme fitness (log ratio)” value was -2.59.
With U6A U13G C14A A37G G50U U55A G59A C87G G94A C96U C116A the “polymerase ribozyme fitness (log ratio)” value was at most -4.2.
For U6A A23U A30U G46A A47C, the “polymerase ribozyme fitness (log ratio)” value was at most -4.2.
In the case of U6A G11A A64C C72U C87U A120G C149A, the “polymerase ribozyme fitness (log ratio)” value is reported as at most -4.2.
For U6C A73U G84A G100U G124A C125G U145G, the “polymerase ribozyme fitness (log ratio)” value was at most -4.2.
In the case of C5U U13G A20C C27G G80A C87U U148G, the “polymerase ribozyme fitness (log ratio)” value is reported as at most -4.2.
For C5U A29U C38U G67C G80C C96U U101G U139A, the “polymerase ribozyme fitness (log ratio)” value was at most -4.2.
With U6A U33C G100U the “polymerase ribozyme fitness (log ratio)” value was at most -4.2.
In the case of U7A C57G G84U A89U U104G, the “polymerase ribozyme fitness (log ratio)” value is reported as at most -4.2.
For U6G A28C A29C G46A C79G C85U A107C U145A, the “polymerase ribozyme fitness (log ratio)” value was at most -4.2.
In the case of U6A C87G A119C, the “polymerase ribozyme fitness (log ratio)” value is reported as at most -4.2.
In the case of C5G A49G C57A A91U C108G U130C U144G, the “polymerase ribozyme fitness (log ratio)” value is reported as at most -4.2.
In the case of U6C C14G G58C A60G G88A U102G, the “polymerase ribozyme fitness (log ratio)” value is reported as at most -4.2.
With U7A G58U C85A C95A the “polymerase ribozyme fitness (log ratio)” value was at most -4.2.
With C5U C38A A52U U82G G86U C116U C118U G140U the “polymerase ribozyme fitness (log ratio)” value was at most -4.2.
For U6G A12U A23G C38A G83U U90G C95A, the “polymerase ribozyme fitness (log ratio)” value was at most -4.2.
In the case of U6G C27U A49C C79G A89U C93U C132A, the “polymerase ribozyme fitness (log ratio)” value is reported as at most -4.2.
With U6G U15G G83C A89G G94U the “polymerase ribozyme fitness (log ratio)” value was at most -4.2.
With U6A C54A C79G C103A G136A the “polymerase ribozyme fitness (log ratio)” value was at most -4.2.
In the case of U7A A110G, the “polymerase ribozyme fitness (log ratio)” value is reported as at most -4.2.
In the case of U7A A26G C103A, the “polymerase ribozyme fitness (log ratio)” value is reported as at most -4.2.
For U6G G68A G92A, the “polymerase ribozyme fitness (log ratio)” value was at most -4.2.
For U6C A19G G58A A138G A150C, the “polymerase ribozyme fitness (log ratio)” value was at most -4.2.
With U7A C8U A73G G81A G83A C96A A119U G124C the “polymerase ribozyme fitness (log ratio)” value was at most -4.2.
With C5G A22U G58U A60U A64U G83C the “polymerase ribozyme fitness (log ratio)” value was at most -4.2.
With C5G U15A A39C G50A A52C C76A C93A U101G the “polymerase ribozyme fitness (log ratio)” value was at most -4.2.
With U7C A17U A29U C57U C93U the “polymerase ribozyme fitness (log ratio)” value was at most -4.2.
For C5G A24U G58U C69U C76A C79U G80A A121C, the “polymerase ribozyme fitness (log ratio)” value was at most -4.2.
For C5U A17U G50A G71U G86U C87A, the “polymerase ribozyme fitness (log ratio)” value was at most -4.2.
For U6C C14U U44A G68U G92U A98G C99G, the “polymerase ribozyme fitness (log ratio)” value was at most -4.2.
For U6A C69U C85G C108U, the “polymerase ribozyme fitness (log ratio)” value was at most -4.2.
With C5G A17G A26C A40U U82G C87U C118G C129A C131A G141C the “polymerase ribozyme fitness (log ratio)” value was at most -4.2.
For C5U U82A C85A C99A U101G G140C, the “polymerase ribozyme fitness (log ratio)” value was at most -4.2.
With C5U A17C G50A U77A C87G A91C A106U U109G the “polymerase ribozyme fitness (log ratio)” value was at most -4.2.
With U7A A73G C93U C129G the “polymerase ribozyme fitness (log ratio)” value was at most -4.2.
With C5U A24C G46C G67C C72G A73C C93G U144A the “polymerase ribozyme fitness (log ratio)” value was at most -4.2.
In the case of U6C G58C A73G C93G G124U U139G U148G, the “polymerase ribozyme fitness (log ratio)” value is reported as at most -4.2.
In the case of C5G U55A C93U C118A, the “polymerase ribozyme fitness (log ratio)” value is reported as -3.5.
For U7A C36U U53G C54A G65C C87U, the “polymerase ribozyme fitness (log ratio)” value was at most -4.2.
With C5G C76U G88C C105G the “polymerase ribozyme fitness (log ratio)” value was at most -4.2.
In the case of U6C C10G, the “polymerase ribozyme fitness (log ratio)” value is reported as -3.97.
In the case of U6A U9A U61G A89G, the “polymerase ribozyme fitness (log ratio)” value is reported as at most -4.2.
In the case of U6G A40U A66G U82A C96A G100U, the “polymerase ribozyme fitness (log ratio)” value is reported as at most -4.2.
With U7C A23G U82G G83A U146G A150G G152C the “polymerase ribozyme fitness (log ratio)” value was at most -4.2.
For U6G C10G C87G, the “polymerase ribozyme fitness (log ratio)” value was at most -4.2.
In the case of C5G U9C A16C A28G A30U C32G C35A G59U G92U C105U, the “polymerase ribozyme fitness (log ratio)” value is reported as at most -4.2.
With C5U A16U G88U U134G U139G the “polymerase ribozyme fitness (log ratio)” value was at most -4.2.
With C5G A49U U53A G67U G68A C95A U144C the “polymerase ribozyme fitness (log ratio)” value was at most -4.2.
For C5U C27G C95U C96U G141C, the “polymerase ribozyme fitness (log ratio)” value was at most -4.2.
For U6C C54U G67C G94C U111A C129G, the “polymerase ribozyme fitness (log ratio)” value was at most -4.2.
For U6A C38U U44A U82G C85U C95A U101G, the “polymerase ribozyme fitness (log ratio)” value was at most -4.2.
For U7A U45A G62C A64U G86U, the “polymerase ribozyme fitness (log ratio)” value was at most -4.2.
For U6A A21U G74U A91G C95G C105G A147U, the “polymerase ribozyme fitness (log ratio)” value was at most -4.2.
In the case of U6A A22C G50A U61G C79U C85A G143U A147C, the “polymerase ribozyme fitness (log ratio)” value is reported as at most -4.2.
In the case of C5U C85G U104C, the “polymerase ribozyme fitness (log ratio)” value is reported as -3.03.
For C5U G11A A22C C57A G92A U139C, the “polymerase ribozyme fitness (log ratio)” value was at most -4.2.
For U6A A66G U82A A89G A119U A120U C129G U145G, the “polymerase ribozyme fitness (log ratio)” value was at most -4.2.
In the case of U6C U45A C69U C75G C96A, the “polymerase ribozyme fitness (log ratio)” value is reported as at most -4.2.
In the case of U7A C8G A12C A40C U55G C95U G112C G141C, the “polymerase ribozyme fitness (log ratio)” value is reported as at most -4.2.
With U6C A49G G59A G92A U111A the “polymerase ribozyme fitness (log ratio)” value was at most -4.2.
In the case of U6G A17G A22G A47U G50A A60U G86C C125G A137C, the “polymerase ribozyme fitness (log ratio)” value is reported as at most -4.2.
With U6C G50C A66G C87G the “polymerase ribozyme fitness (log ratio)” value was at most -4.2.
For C5G C36U G74U G143A U145G, the “polymerase ribozyme fitness (log ratio)” value was at most -4.2.
With U6A C10G G50A U55A G88C C103G A110C U134A G141A the “polymerase ribozyme fitness (log ratio)” value was at most -4.2.
For C5U A23C A40C A49U G70C G94A, the “polymerase ribozyme fitness (log ratio)” value was at most -4.2.
For U6G C18U G46C G92A G141A, the “polymerase ribozyme fitness (log ratio)” value was at most -4.2.
With U6G A23G A26G A49C G50U the “polymerase ribozyme fitness (log ratio)” value was at most -4.2.
For C5U A22G A23G U53A A91C C95U, the “polymerase ribozyme fitness (log ratio)” value was at most -4.2.
In the case of C5U C32G G92C U104C, the “polymerase ribozyme fitness (log ratio)” value is reported as at most -4.2.
With U6A U146G A150G G152A the “polymerase ribozyme fitness (log ratio)” value was -1.38.
